Test results from PubChem BioAssay AID316 (DTP/NCI, 2004).
Inconclusive results and toxic doses are left out. Some entries of the source have several records that differ or are many. They are shown here; other results are not. The source may hold further records. The values listed for one entry are repeats in other runs, samples, wells, individuals or studies.

System: P1534 leukemia ip, CD2F1 mice, survival T/C
Assay: NCI In Vivo Anticancer Drug Screen. Data for tumor model P1534 Leukemia (intraperitoneal) in CD2F1 (CDF1) mice
Details: endpoint: mean survival time, vehicle: saline, higher = longer survival
Method: The antitumor activity of compounds was measured in mice bearing transplantable tumors. Survival or tumor size were measured and the results are expressed as the measurement made in the treated group (T) divided by the measurement made in the vehicle treated control group (C). The tumor model used in this assay is P1534 Leukemia (intraperitoneal) in CD2F1 (CDF1) mice

Row | SMILES | T/C (dose: 0.67 mg/kg/injection, schedule: Q02DX008 (ip)) | T/C (dose: 160.0 mg/kg/injection, schedule: Q01DX010 (ip))
1 | CC[C@]1(O)C[C@H]2CN(CCc3c([nH]c4ccccc34)[C@@](C(=O)OC)(c3cc4c(cc3OC)N(C=O)[C@H]3[C@@](O)(C(=O)OC)[C@H](OC(C)=O)[C@]5(CC)C=CCN6CC[C@]43[C@@H]65)C2)C1 | 102 % of control, 106 % of control, 313 % of control | 
2 | OCC1OC(n2cnc3c(=S)nc[nH]c32)C(O)C1O (configuration not stated) |  | 111 % of control and 166 % of control
